{"source": "PubChem BioAssay (NCATS)", "key": {"[1]": {"assay": "qHTS Assay for Lipid Storage Modulators (AID 1519)", "conditions": "Drosophila S3 cells, BODIPY lipid droplet/cell ratio, laser cytometry, cells loaded with oleic acid; for AC50: measured here: lipid (BODIPY) channel AC50", "how_it_was_run": "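Cells seeded at 5,000 per well were treated with compounds over a concentration series and loaded with oleic acid (400 uM, as added). Lipid droplet fluorescence (488 nm excitation, 500-530 nm channel) was read by laser-scanning cytometry and normalized to 20 uM Triacsin C.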"}, "[2]": {"assay": "Validation of Assay for Modulators of Lamin A Splicing (AID 1459)", "conditions": "Lamin A splicing dual RFP/GFP fluorescence reporter, ratio; measured here: GFP channel", "how_it_was_run": "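S3 HeLa cells stably expressing a lamin A-EGFP splicing minigene and DsRed2 were seeded at 600 cells/well in Opti-MEM with 2% FBS, pin-dosed, and incubated 48 hrs at 37 °C, 5% CO2. Laser-scanning cytometry (488 nm) gave GFP/RFP total intensity ratio.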"}, "[3]": {"assay": "qHTS Assay for Modulators of Human Peripheral Myelin Protein 22 (PMP22) Expression/Activity (AID 1967)", "conditions": "Cell-based PMP22 reporter, dual-color luciferase ratio", "how_it_was_run": "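MSC80 mouse Schwann cells stably carrying Pmp22 promoter–green click beetle luciferase plus EF-alpha–red luciferase control were dosed for 24h at 37 °C. Dual-colour luminescence was filter-overlap corrected; %Activity came from green/red ratio versus untreated cells.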"}, "[4]": {"conditions": "measured here: cell count channel max response"}, "[5]": {"conditions": "measured here: lipid channel max response"}}, "note": "This is one part of the list. The main result of the screen is listed elsewhere. These columns were measured beside it and carry no call. Compounds called inactive in the main read-out are mostly missing here. Potencies come from curve fits of mixed quality, noted in brackets. Tags tell the direction and shape of the fitted curve.", "data": [{"smiles": "CC[C@]1(O)C(=O)OCc2c1cc1n(c2=O)Cc2cc3ccccc3nc2-1", "values": [{"measurement": "max response", "setting": "[1]; [4]", "result": 64.3, "unit": "%"}, {"measurement": "max response", "setting": "[1]; [5]", "result": 64.8, "unit": "%"}]}, {"smiles": "C/C(=C\\[C@@H](N)C(=O)O)CP(=O)(O)O", "values": [{"measurement": "max response", "setting": "[1]; [4]", "result": 1.74, "unit": "%"}, {"measurement": "max response", "setting": "[1]; [5]", "result": 5.68, "unit": "%"}]}, {"smiles": "COc1ccc(-n2nc(C(F)(F)F)cc2-c2ccc(Cl)cc2)cc1", "values": [{"measurement": "AC50", "setting": "[2]", "result": "35.5 µM [rising, single point]"}, {"measurement": "AC50", "setting": "[3]; measured here: green reporter channel AC50, mouse Pmp22 promoter in mouse Schwann cells", "result": "84.9 µM [falling, single point]"}, {"measurement": "AC50", "setting": "[3]; measured here: red reporter channel AC50, EF-alpha promoter control reporter in MSC80 mouse Schwann cells", "result": "84.9 µM [falling, single point]"}]}, {"smiles": "COc1cc(CCN)ccc1O", "values": [{"measurement": "max response", "setting": "[1]; [4]", "result": 54.7, "unit": "%"}, {"measurement": "max response", "setting": "[1]; [5]", "result": 55.7, "unit": "%"}]}, {"smiles": "C[C@]12CCC3C(CC[C@]4(O)C[C@@H](O)CC[C@]34C=O)[C@@]1(O)CC[C@@H]2C1=CC(=O)OC1", "note": "(stereo partly specified)", "values": [{"measurement": "max response", "setting": "[1]; [4]", "result": 12.5, "unit": "%"}, {"measurement": "max response", "setting": "[1]; [5]", "result": 37.3, "unit": "%"}]}, {"smiles": "CCNC(=O)[C@H]1O[C@@H](n2cnc3c(N)ncnc32)[C@H](O)[C@H]1O", "values": [{"measurement": "max response", "setting": "[1]; [4]", "result": 43.9, "unit": "%"}, {"measurement": "max response", "setting": "[1]; [5]", "result": 45.7, "unit": "%"}]}, {"smiles": "COc1cc2c(cc1OC)[C@@H]1C(=O)c3ccc4oc(C(C)C)cc4c3OC1CO2", "note": "(stereo partly specified)", "values": [{"measurement": "AC50", "setting": "[1]", "result": "2.24 µM [falling, full curve]"}]}, {"smiles": "O=C(NCC1CCCCN1)c1cc(OCC(F)(F)F)ccc1OCC(F)(F)F", "note": "(stereo unspecified)", "values": [{"measurement": "max response", "setting": "[1]; [4]", "result": 57.6, "unit": "%"}, {"measurement": "max response", "setting": "[1]; [5]", "result": 58.3, "unit": "%"}]}, {"smiles": "C[C@H]1C2Cc3ccc(O)cc3[C@]1(C)CCN2CC1CC1", "values": [{"measurement": "max response", "setting": "[1]; [4]", "result": 51.8, "unit": "%"}, {"measurement": "max response", "setting": "[1]; [5]", "result": 52.1, "unit": "%"}]}, {"smiles": "NC(=NCc1ccc(Cl)cc1)SCCCc1cnc[nH]1", "values": [{"measurement": "max response", "setting": "[1]; [4]", "result": 80.2, "unit": "%"}, {"measurement": "max response", "setting": "[1]; [5]", "result": 103, "unit": "%"}]}, {"smiles": "CCN(CC)c1ncnc2c1ncn2[C@@H]1O[C@@H](COP(=O)(O)OP(=O)(O)C(Br)(Br)P(=O)(O)O)[C@H](O)[C@H]1O", "values": [{"measurement": "max response", "setting": "[1]; [4]", "result": 15.5, "unit": "%"}, {"measurement": "AC50", "setting": "[1]", "result": "0.0501 µM [rising, full curve, poor fit]"}, {"measurement": "max response", "setting": "[1]; [5]", "result": 26.4, "unit": "%"}]}, {"smiles": "CN(C)C1C(=O)C(C(N)=O)=C(O)[C@@]2(O)C(=O)C3=C(O)c4c(O)ccc(Cl)c4[C@](C)(O)C3CC12", "note": "(stereo partly specified)", "values": [{"measurement": "max response", "setting": "[1]; [4]", "result": 22.1, "unit": "%"}, {"measurement": "AC50", "setting": "[1]", "result": "10 µM [rising, partial curve]"}, {"measurement": "max response", "setting": "[1]; [5]", "result": 47.4, "unit": "%"}]}]}
